Laboratory results reported in the RNAGym collection of RNA variant scans (doi:10.1093/nar/gkz1192).
Read counts are not given, so values of variants with three or more changes are uncertain.

B1: CPEB3 Ribozyme (parent)
chain: UAACAGGGGGCCACAGCAGAAGCGUUCACGUCGCAGCCCCUGUCAGAUUCUGGUGAAUCUGCGAAUUCUGCUGUAUAUCUC

Variants of: B1
Assay: self-cleavage, relative activity (ratio to wild type); higher = more cleavage; in vitro, sequencing
Method in brief: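 Libraries of CPEB3 self-cleaving ribozyme mutants came from rounds of error-prone PCR and carried barcodes, which DNA sequencing matched to variants. In vitro transcription used T7 RNA polymerase at 37°C for 5 hours, with a further 15 min in DNase I before EDTA stopped the reaction; the ribozymes cleaved during both steps. The RNA was reverse transcribed with template switching and sequenced on Illumina. Relative activity is the cleaved/total read fraction of a variant divided by that of the unmutated ribozyme, averaged over three batches with at least 5 reads.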

| Variant | self-cleavage |
| --- | --- |
| G8U A35U U43C U60A U76C U80C | 0.04 |
| G8U A35U U49C U60A C68A | 0.14 |
| G8U A35U U51C | 0.05 |
| G8U A45C A64U U80A | 0 |
| G8U A45G U67C U80C | 0.14 |
| G8U A47G A56G A65C U80G | 0.05 |
| G8U A47G A64G | 0.36 |
| G8U A47U U49C | 0.06 |
| G8U A56G A64G A65G U66C U78C | 0.04 |
| G8U A56U A57G | 0.12 |
| G8U A57G A64U | 0.06 |
| G8U A57G A65G | 0.06 |
| G8U A64G U74C | 0.06 |
| G8U A65U U74C | 0.06 |
| G8U C11G C12U U26C C34A A47U | 0.04 |
| G8U C11G U31C U54C | 0.21 |
| G8U C12A C59A U72G | 0.06 |
| G8U C12U C29U U31A A45G U80A | 0.03 |
| G8U C12U C38G U69A | 0.04 |
| G8U C12U U41C U60A | 0.2 |
| G8U C14U A18U | 0.03 |
| G8U C14U U31A A35G U67C U72C | 0.1 |
| G8U C17G U31G G36A C62A A64G U72A | 0 |
| G8U C23A A45G A64G U67C | 0.08 |

| Variant | self-cleavage |
| --- | --- |
| G8U C23A U49C A65G | 0.12 |
| G8U C23G U25C U26C U51A | 0.06 |
| G8U C23U C32U A35G C38U | 0.04 |
| G8U C23U U31C U51C | 0.26 |
| G8U C23U U51A G63U U67C | 0.05 |
| G8U C27A U31C A35U C37U A65C | 0.04 |
| G8U C27G U54A C62U | 0.06 |
| G8U C32A U51A | 0.05 |
| G8U C32A U60C | 0.06 |
| G8U C32U A45G A65C | 0.1 |
| G8U C32U A65G | 0.14 |
| G8U C37U A57C U60C A65C | 0.09 |
| G8U C37U C50U | 0.26 |
| G8U C37U U43C A47G U58C A65C | 0.05 |
| G8U C37U U43C U60G G63A | 0.08 |
| G8U C39A U54C U67C U80C | 0.06 |
| G8U C40U A64G | 0.06 |
| G8U G9A A28G U74A | 0.4 |
| G8U G9A C38A | 0.22 |
| G8U G10A U26C A64U U67C | 0.05 |
| G8U G10C A56G U67C U69C U74C | 0.06 |
| G8U G16U A21G C38A | 0.35 |
| G8U G19A C23A U49C A56U C68U | 0.04 |
| G8U G19C U69C | 0.12 |

| Variant | self-cleavage |
| --- | --- |
| G8U G24A A35G | 0.15 |
| G8U G24U U25C U48C U58C | 0.06 |
| G8U G24U U26A A35G A45U | 0.07 |
| G8U G30A U41G U54G | 0.02 |
| G8U G30A U49C U51A C62A U66A U74A | 0.02 |
| G8U G30U A45C U51A A64U | 0.09 |
| G8U G30U A64G | 0.05 |
| G8U G33A A56G | 0.04 |
| G8U G33A C37A C39G U49A C62G U76A | 0.01 |
| G8U G33A C38A A47G U51G | 0.1 |
| G8U G46U U54C U60C | 0.06 |
| G8U G53C U54C | 0.18 |
| G8U G55A U60A U78C | 0.09 |
| G8U G55C U66A | 0.05 |
| G8U U25A U31C A47G A57U G63U U72C | 0.04 |
| G8U U25C G36C U58C | 0.1 |
| G8U U25C G52C U60C U66A U76C | 0.06 |
| G8U U25C U26A U72A | 0.05 |
| G8U U25G U48C U54A U58C | 0.03 |
| G8U U26A A56G | 0.07 |
| G8U U26A G61C | 0.11 |
| G8U U26A U31C A47C C59A C71U | 0.04 |
| G8U U26A U51A U54G U69C U72G | 0.06 |
| G8U U26A U72C | 0.16 |

| Variant | self-cleavage |
| --- | --- |
| G8U U26C U49A G63C | 0.12 |
| G8U U26C U51C U66G | 0.12 |
| G8U U31A A35G A45U C50A U66C A77G | 0.03 |
| G8U U31A U67A | 0.11 |
| G8U U31C A35G C44U | 0.05 |
| G8U U31C G63A | 0.17 |
| G8U U31C U41C | 0.15 |
| G8U U31C U41C A56G U69C | 0.13 |
| G8U U31C U78C | 0.06 |
| G8U U31C U80A | 0.05 |
| G8U U31G U43C U74C | 0.17 |
| G8U U41A U49A | 0.16 |
| G8U U41A U60C | 0.12 |
| G8U U41A U66C U67C U72A | 0.11 |
| G8U U41A U72A | 0.13 |
| G8U U41C A65G C81A | 0.16 |
| G8U U41C A77G U80A | 0.08 |
| G8U U41C U48C A65G | 0.14 |
| G8U U41C U48C U60A | 0.12 |
| G8U U41C U51A G52U | 0.15 |
| G8U U41G U48C U58C | 0.04 |
| G8U U43A C62U | 0.23 |
| G8U U43G A45G | 0.16 |
| G8U U49A C59U A64U U72C | 0.04 |

| Variant | self-cleavage |
| --- | --- |
| G8U U49C U51C U72C C81G | 0.06 |
| G8U U49C U76C U78C | 0.12 |
| G8U U51A U54C U72C U76C A77G | 0.06 |
| G8U U51A U74C A75G | 0.13 |
| G8U U51C A57G U69G | 0.3 |
| G8U U51C G63A U67C | 0.06 |
| G8U U60A C62U | 0.13 |
| G8U U60A U69C U78C | 0.06 |
| G8U U60C A75U | 0.05 |
| G8U U66C U69A | 0.14 |
| G8U U66C U76C U80C | 0.03 |
| G8U U67C C79G | 0.12 |
| G9A A13C C38A A57U | 0.1 |
| G9A A13C U72C | 0.4 |
| G9A A13G A18G C40U U41A | 0.06 |
| G9A A13G A20G U60C | 0.14 |
| G9A A13G A21U U74C U80C | 0.1 |
| G9A A13G A28U U51C C59A | 0.22 |
| G9A A13G A47U U67C | 0.05 |
| G9A A13G C23U A45G U67C C81U | 0.06 |
| G9A A13G G33C G42A U51C U66A C71U | 0.04 |
| G9A A13G U26A U69C | 0.06 |
| G9A A13G U31C U60C | 0.08 |
| G9A A13G U54A | 0.17 |

| Variant | self-cleavage |
| --- | --- |
| G9A A13G U78C | 0.28 |
| G9A A13U A21G U31C U41C A57G U67C | 0.08 |
| G9A A13U A28G A75G U78C | 0.14 |
| G9A A13U A35U U41C U43C | 0.06 |
| G9A A13U A47C A64G | 0.34 |
| G9A A13U A47C U49C | 0.19 |
| G9A A13U U25C C27U A47G U78C | 0.05 |
| G9A A13U U31A U51A C68U | 0.04 |
| G9A A13U U41C G63A | 0.37 |
| G9A A13U U41C U60C | 0.09 |
| G9A A13U U54C A65G U76C | 0.04 |
| G9A A13U U72A | 0.13 |
| G9A A15C A18G U51C U60C A64U | 0.04 |
| G9A A15G A18G A35G U67A | 0.37 |
| G9A A15G A20G U54C | 0.24 |
| G9A A15G A21G U26C G55A | 0.04 |
| G9A A15G A28G C40U U60C U66C A75U | 0.19 |
| G9A A15G A28G U41C | 0.09 |
| G9A A15G A28G U41C A56U C62U | 0.23 |
| G9A A15G A45G U58A U72C U80A | 0.17 |
| G9A A15G A45G U60A U72G | 0.09 |
| G9A A15G A56C A65U U78A | 0.06 |
| G9A A15G A64U U72A | 0.11 |
| G9A A15G C17U U31A U58C U78C | 0.05 |

| Variant | self-cleavage |
| --- | --- |
| G9A A15G C23U U26C U31A U60C | 0.15 |
| G9A A15G C29U | 0.16 |
| G9A A15G G19U | 0.04 |
| G9A A15G G42A U54C A65U | 0.12 |
| G9A A15G U26A U54A | 0.09 |
| G9A A15G U26C A45G A56G U58C U72G | 0.16 |
| G9A A15G U41C U54C | 0.19 |
| G9A A15G U43A A45G U49C A65G | 0.05 |
| G9A A15G U54A U78C | 0.14 |
| G9A A15G U58A A64G U80C | 0.09 |
| G9A A15U A20U C23G U25C A35G U41A | 0.06 |
| G9A A15U A21G A35U A45C U60C | 0.04 |
| G9A A15U A21U A47U A56G A64U U74A | 0.06 |
| G9A A15U A28C | 0.48 |
| G9A A15U A28G U31A U60A U67C | 0.05 |
| G9A A15U A28G U67C U69A | 0.13 |
| G9A A15U A45U | 0.09 |
| G9A A15U G55U | 0.27 |
| G9A A15U U25C C38A | 0.15 |
| G9A A15U U26C A35U A45G U72C | 0.13 |
| G9A A15U U43C A64G | 0.05 |
| G9A A15U U60C U67A U74A U80C | 0.05 |
| G9A A18C G33A A45U U58C A75U | 0.04 |
